# In the supplement of paper PMC11417369:
# ± gives the standard deviation of the averaged measurements. Some of the results follow.
# System: PfAP2-I AP2 domain 3 (GST-tagged)
# Experiment: gcPBM binding intensity (ln(normalized median fluorescence intensity)); higher = stronger DNA binding
# How it was run: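 For binding intensity, the highest Masliner-normalised natural-log median intensity across replicate spots of either probe orientation was taken. Protein bound to the array was stained with Alexa488 anti-GST antibody and scanned at 488 nm. The protein, GST-tagged P. falciparum DNA-binding domains from E. coli at about 25 μg on average, had been applied for 1 h to an Agilent 4 × 180k array of primer-extended double-stranded 36-bp intergenic genomic probes and negative controls.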
row,Sequence,gcPBM binding intensity (ln)
1,AAAGGAAAAGTTGACTGTACATAAGTAAAAAATAAT [XGTACX_site788],8.05 ± 0.61
2,TTTATACAAATATGTACACACTAAATATATATTATG [CACACA_site4413],7.96 ± 0.33
3,TCTTTTATATATAATAATTATATATAACATTCAAAC [GTGCAC_negctrl_site112],7.89 ± 0.44
4,GTTAATCACCATGTGGTGCATATAAGGGCATATTAT [GTGCAC_site9748],11 ± 0.55
5,AATTAATAAAAAAGGTGTACAGTAAATGCAATAATC [XGTACX_site7956],9.1 ± 0.5
6,ATAAATTCATACATTTGTACACAAAAAAAAAAAAAA [XGTACX_site2435],8.12 ± 0.57
7,CCTTATACGATATTATGTACGCATATGTGCATTTTT [XGTACX_site1570],8.91 ± 0.21
8,ATTATTTGATTAAAGGTGCAAGGATAATAATAAAAC,9.47 ± 0.17
9,TAATGGTATAAAAAATGTACATGTTTTTTTACAATT [XGTACX_site4285],7.91 ± 0.53
10,ATATATATATATTTATGTACATATTATTTATTCTTT [XGTACX_site6567],9.21 ± 0.53
11,ACATATAATAAAATAGTGCATTGTTAGTTTTATATA,10.4 ± 0.42
12,TATTATATAATATACTGTACAATATCCATTATTTAC [XGTACX_site7091],7.81 ± 0.52
13,TATATTTACTTATATGCACACATAAATGTGAATTAT [CACACA_site9258],9.22
14,CTTAAAATATATTTAGTGCATATACTAATATATTAT,10.2 ± 0.45
15,TATATATATATATTATGTACATATATAAATTAACAT [XGTACX_site3368],9.12 ± 0.33
16,AATATAGGAATATGCACACATATATACATACATACA [CACACA_site1521],9.235 ± 0.078
17,TTTTTTAAAGTTTAAAGTACATATAAAAATATATAA [XGTACX_site5267],7.65 ± 0.2
18,TATGAAAAAAAAAAAAAAAAAAAAAAAAAAAAAAAA [XGTACX_negctrl_site587],8.29 ± 0.84
19,AAAAAAATAAAATATATATATATATATATATATATA [GTGCAC_negctrl_site706],9.55 ± 0.67
20,TATATATGGATATATACACACAACGGTTATAAATAT [CACACA_site6655],7.68 ± 0.55
21,AAGAAAAATACTACGTGTACCAAACTTCCTACCAAC [XGTACX_site1426],7.98 ± 0.67
22,TATATATATATATTATGTACATATAAATATATTTTT [XGTACX_site1509],9.31 ± 0.49
23,TGTAAATATAAAAGATAATGATAAAAGGGACATTTT [CACACA_negctrl_site661],7.81 ± 0.68

row,Sequence,gcPBM binding intensity (ln)
1,AATATATATATGTGTACACATCCAAAATAGGCATAC [CACACA_site5705],8.32 ± 0.52
2,ATATATATATAAATATGTACATATTTATATATGAAT [XGTACX_site3220],8.94 ± 0.092
3,ATCTATATTATAATAACACACATATATTATAGTATA [CACACA_site6330],7.75 ± 0.54
4,TTTTTATGTGTATATTATTACATTTACATCTTTAAC [CACACA_negctrl_site1676],7.84 ± 0.65
5,ACAAGACAACAAGGAAGTACTCATAAATATATTTGG [XGTACX_site1423],7.78 ± 0.46
6,CTCACATATATATATAGTACAATTTTTTTTTTTTTT [XGTACX_site5999],7.79 ± 0.49
7,ATGTAGAATTGTAAATGTACATGAAACACATATTCA [XGTACX_site3436],7.64 ± 0.59
8,ATAAAATTATCTACATGTACTCATATATATTTGTTT [XGTACX_site5911],7.99 ± 0.61
9,AGAGAGAAAGTTATAACATGCAACAATTTTTAGAAG [TGCATGCA_site1],7.91 ± 0.71
10,TATATATATATATGTGGTACATAAAATTATTATTTT [XGTACX_site4554],9.43 ± 0.41
11,CTTTAAACCCTGAACACACACAAATACACCCAAAAA [CACACA_site4297],8.61 ± 0.17
12,TTTGTATTAAAAAAAAAAAAAAAAAAAATGAATAAA [TGCATGCA_negctrl_site292],7.34 ± 0.41
13,TTTTTTTTTTTTTTTTTTTTTTTTCATTTGATATTA [TGCATGCA_negctrl_site112],8.3 ± 0.7
14,ATAACGGAAAAAAAAAGTACATGATATAAACATGAA [XGTACX_site8428],7.91 ± 0.29
15,AAAAATAAGATATATACACACATATAAATATAAATA [CACACA_site7396],7.47 ± 0.57
16,TTATTTATTCTATGTGCATGTTATTTTTTTTTTTCG [TGCATGCA_site262],8.16 ± 0.73
17,ATACTATTATATATATGTACATATATATGATGCTCT [XGTACX_site1771],7.93 ± 0.53
18,AAGGAGCCTATGAACACACACATGTACATATATTAA [CACACA_site4084],7.86 ± 0.54
19,TTCGTTCTTTTATGCACACTCAACATATAAATTAAA [CACACA_site1209],10.2 ± 0.32
20,TTATAATATATATGTAGTACTGTTTTTTTCTATTTT [XGTACX_site7749],7.78 ± 0.57
21,TGTACAAATATGTACACACACACATATATATATATA [CACACA_site584],9.3 ± 0.38
22,TATTATTTTAAAAATGCATGTTCATATGAAATAATA [TGCATGCA_site969],8.1 ± 0.57
23,AGTAAATAATTATATACATGCATTTACTAATATTTA [TGCATGCA_site952],8.04 ± 0.56

row,Sequence,gcPBM binding intensity (ln)
1,ATATGACGTAGTGGTGTACACACATGGTACCTTTAT [CACACA_site8436],8.39 ± 0.41
2,AATATATATTTATGTACACACTCCAATACAGATACA [CACACA_site5481],8.06 ± 0.31
3,CATATACATACACATACACACATACACCCATACACA [CACACA_site8514],8.395 ± 0.035
4,TGTAAAAAATTTAACACACACATATATAAATATGTA [CACACA_site7261],7.58 ± 0.26
5,TATATTATAATTTGAAGTACATTTTAAATTAACTAA [XGTACX_site1013],7.51 ± 0.29
6,ATATAATAGTATATATGTACATATATTTAAATACTA [XGTACX_site1135],7.74 ± 0.4
7,AGAGAGAGAAATACAAGTACATGTGAAACCAATCTA [XGTACX_site2767],7.86 ± 0.26
8,AAAAAATAAAAAAAAACACACACATACAAGCATATA [CACACA_site8451],7.74 ± 0.43
9,AAAAAAAACAAATACACACGCACACCGAAAAAAAAA [CACACA_site803],8.02 ± 0.53
10,TTCAACATAATATGCACACAAAAATTATGGAACGAA [CACACA_site2111],8.96 ± 0.12
11,AAAAAAAAAAAAATTGCACACAAAAAAAAAAAAAAA [CACACA_site8644],8.88 ± 0.25
12,AAAAAAAAAAAACACACACACACACCCACAAAATAT [CACACA_site1447],8.24 ± 0.18
13,AAAAAAAAATACCTACGTACATATATATATTATATA [XGTACX_site3983],7.64 ± 0.38
14,CTTTATCTTCTCACGAAGATTGAATAAGGTATTCTT [XGTACX_negctrl_site307],7.14 ± 0.78
15,CAGACAATAAAGAAGTGTACACATATATCAATAAAA [XGTACX_site4515],8.11 ± 0.67
16,TTAATGCACTTTATTACACACACTAGTTCATTACCT [CACACA_site2294],11.5 ± 0.95
17,TATTCACATACAGAAACACACACATATATATAAATT [CACACA_site9232],7.79 ± 0.43
18,TTTGTGTGTGCGTGTGCATGTTGTTTTTTTCTATAA [TGCATGCA_site17],8.45 ± 0.48
19,AATATAATAACTTATTGTACGAAATTATATCACCTT [XGTACX_site7883],7.67 ± 0.61
20,TAATTAAGCATAAATATAATTTTATATTTTATTTCC [XGTACX_negctrl_site321],7.28 ± 0.44
21,TAACATAGCAATGTTTCACACACAAGAAAAAATACA [CACACA_site8747],7.83 ± 0.64
22,TGCAGTCTGGAGAAAAGTACATAGTATCTGGTAGCT [XGTACX_site2547],7.87 ± 0.66
23,ATATATGTATATATTTGTACATATAATATTTTTTAA [XGTACX_site6345],7.31 ± 0.31

row,Sequence,gcPBM binding intensity (ln)
1,ATTTGTAATTTATTCAAACACACAATTTGGACCTTT [CACACA_site1062],7.48 ± 0.57
2,GAAATAAAAGATGGTTGTACACCGTTTTCTCATATA [XGTACX_site5368],7.75 ± 0.52
3,TACATATATGATAAAAGTACATATAAATATACATAA [XGTACX_site3804],7.68 ± 0.33
4,TATATGAATAAACATTGTACGTAAATATTAACTATC [XGTACX_site543],7.79 ± 0.47
5,AAAAAAAATTATATATGTACTTATTAATCCTTTTAT [XGTACX_site1387],7.55 ± 0.38
6,TATAATAATAATAATAATAATAATAATAATAATAAT [CACACA_negctrl_site905],8.04 ± 0.36
7,CGCATAAAGACAAGAACACACATATAGATTGTAGTA [CACACA_site3693],7.47 ± 0.69
8,TTATATATTAAGAAATGTACGAAAAAAAAAATTATA [XGTACX_site3893],7.78 ± 0.43
9,AAGATGATAAAATATGTACACACAGTTTATACATTT [CACACA_site9341],7.7 ± 0.45
10,CACCCACCCAGACACACACACACACCCCCACCCATA [CACACA_site367],8.99 ± 0.33
11,ACATTTTAAATACGATGTACTTGAGTTTTTTTTAAA [XGTACX_site5833],7.5 ± 0.46
12,AATTATTTATTGAGAGTGCAACAAATTATTTCAAAT [GTGCAC_site9461],9.69 ± 0.23
13,TTTTTTTGCATGAGCAATAAAAAAGGCTTGTTCAAA [CACACA_negctrl_site1615],7.56 ± 0.47
14,TAAAAAATTTTCGCGTGTACGCAAGAAAAAAAAAAT [XGTACX_site3058],8.04 ± 0.72
15,TTTTTGCCATATTACACACACACATGGAAACCCCCT [CACACA_site4994],9.19 ± 0.085
16,TCTTTTAACAAATAATAAGCTAATTTATATTATTAT [GTGCAC_negctrl_site655],7.58 ± 0.67
17,AAAAAAATAATGTATATATAAATTTATTTACATATG [GTGCAC_negctrl_site107],7.42 ± 0.36
18,TATATATTTAGTTAGTGTACAAGTTATTTAGTAGTT [XGTACX_site5133],8.04 ± 0.37
19,CAAATAAATTAAAGGTGTACTTTTATAGTTACGACA [XGTACX_site3926],7.74 ± 0.34
20,CATATTTTCTTGTGTACACATTTATTTTATACTATA [CACACA_site6032],8.88 ± 0.19
